The source of these data is patent US20240245798A1, “NOVEL ANTI-TPBG ANTIBODY AND ANTIBODY-DRUG-CONJUGATES BASED THEREON, THERAPEUTIC METHODS AND USES THEREOF” (Tubulis GmbH, priority 2022, published 2024).

For test [1], the system named is MDA-MB-468 and DU-145 target cells. Kind of test: Calcein release-based ADCC assay with human NK cells. The test is classed as cell-based. As to conditions: 15 μg/ml, NK:target 4:1, 4 h. The source says:
For the Calcein release-based antibody-dependent cellular cytotoxicity (ADCC) assay, peripheral blood mononuclear cells (PBMCs) were isolated from healthy donor buffy coats (purchased from DONAS GmbH) using LeucoSep tubes (Greiner Bio-One) and Histopaque®-1077 (density 1.077 g/ml, Merck) density gradient according to standard protocols. Afterwards, natural killer (NK) cells were MACS (magnetic cell separation)-sorted using human NK cell isolation kit (Miltenyi Biotec) by negative selection according to the manufacturer's instructions yielding untouched human primary NK cells. 5T4-positive target cells MDA-MB-468 (5T4^high) and DU-145 (5T4^med) were stained with 16 μM Calcein AM (Thermo Fisher Scientific). 40.000 NK cells and 10.000 Calcein-stained target cells were incubated at a 4:1 ratio in the presence of 15 μg/ml antibodies or ADCs. Cells permeabilized with 2.5% Triton X 100 (Merck) served as a positive control for maximum Calcein release. After 4 h, supernatants were transferred to a flat black non-binding 96-well plate (Greiner Bio-One) and fluorescence was measured at 485/535 nM via the Infinite […] reader (Tecan). The percent specific killing was calculated by dividing the Calcein released by antibody-mediated killing minus background Calcein release (NKs+targets) from Calcein released by Triton X-permeabilized cells (maximum killing) minus background Calcein release (targets only). Graphs show means of n=2±SEM.

The target in test [2] is T1, recombinant human 5T4 antigen (extracellular domain) (Homo sapiens, UniProt Q13641).
T1 construct: consisting of the extracellular domain (ACD) of 5T4 expressed as a 6×-Histidine fusion protein; 6xHis; made in house; host or cells: Expi-HEK293
T1 sequence (Q13641 32-355 limits assumed): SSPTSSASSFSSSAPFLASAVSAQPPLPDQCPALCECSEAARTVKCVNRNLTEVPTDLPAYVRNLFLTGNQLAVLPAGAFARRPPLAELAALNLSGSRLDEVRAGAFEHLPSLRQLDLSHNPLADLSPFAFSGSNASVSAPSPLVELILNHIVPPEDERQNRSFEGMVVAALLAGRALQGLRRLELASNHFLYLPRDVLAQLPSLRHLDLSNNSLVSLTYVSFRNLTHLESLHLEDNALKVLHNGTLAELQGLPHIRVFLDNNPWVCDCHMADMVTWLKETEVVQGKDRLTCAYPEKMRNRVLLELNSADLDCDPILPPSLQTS
Kind of test: Binding to purified recombinant immobilized human 5T4 antigen, ELISA. As to conditions: summary statement of the description; read-out: apparent dissociation constants (KD) to human 5T4 in an ELISA setting. How it is done: Binding of increasing concentrations of the anti-TPBG antibody to a purified recombinant immobilized human 5T4 antigen was tested in an ELISA setting.
To determine binding of the anti-TPBG antibody to 5T4 antigen, 96-well-, F-Bottom black, MaxiSorp, Nunc-Immuno plates (Thermo Fisher) were coated with 1 μg/mL purified recombinant human 5T4 antigen, consisting of the extracellular domain (ACD) of 5T4 expressed as a 6×-Histidine fusion protein in Expi-HEK293 cells. For de-glycosylation, the antigen was incubated with PNGase F (Promega) over night at 37° C. De-glyosylation was confirmed by Coomassie-stained SDS-PAGE (FIG. 2B). After blocking with 2% bovine serum albumin (Carl Roth) in 1×PBS-Tween 20 (0.05%), increasing antibody concentrations (0.00015, 0.00046, 0.00137, 0.00412, 0.01235, 0.03704, 0.11111, 0.33333, 1.00000, 3.00000, 9.00000 μg/ml) were allowed to bind for 2 hr at room temperature. Bound antibodies were detected by incubation with Alkaline Phosphatase AffiniPure Rabbit Anti-Human IgG (Fcγ fragment specific) (Jackson Immunoresearch, 309-055-008) (dilution 1:5000 in blocking solution) for 1 hr at RT. […] The hydrolysis of 4-MUP to the soluble fluorescent substance methylumbelliferone is quantified by the fluorescence signal of methylumbelliferone (385 nm excitation wavelength, 448 nm emission wavelength) using a microplate reader Infinite M1000 Pro (Tecan). […]
On the technique in general: ELISA stands for enzyme-linked immunosorbent assay.

For test [3], the target named is T2, endogenously expressed human 5T4 (Homo sapiens, UniProt Q13641).
T2 construct: endogenously expressed human 5T4; endogenous in cells; host or cells: MDA-MB-468
T2 sequence (Q13641 32-420): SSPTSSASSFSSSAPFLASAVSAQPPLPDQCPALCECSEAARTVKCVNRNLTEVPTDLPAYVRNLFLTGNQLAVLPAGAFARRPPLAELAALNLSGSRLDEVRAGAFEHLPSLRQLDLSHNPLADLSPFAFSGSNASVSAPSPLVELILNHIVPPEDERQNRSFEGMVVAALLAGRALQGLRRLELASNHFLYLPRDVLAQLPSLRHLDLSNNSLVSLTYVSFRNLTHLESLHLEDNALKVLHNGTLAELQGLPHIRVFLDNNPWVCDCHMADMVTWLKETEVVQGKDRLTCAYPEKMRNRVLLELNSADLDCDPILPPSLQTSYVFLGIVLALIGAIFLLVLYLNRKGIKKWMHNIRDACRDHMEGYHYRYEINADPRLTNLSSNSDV
Kind of test: Binding to human 5T4 evaluated by flow cytometry on MDA-MB-468 cells. The note with it: MDA-MB-468 cells endogenously expressing 5T4, one-site specific binding model, listed as mAb of the present invention. How it is done: To determine equilibrium binding constants (KD) to endogenously expressed human 5T4, 5T4-expressing MDA-MB-468 cells were incubated with antibodies in concentrations ranging from 0.002 to 200 nM and stained with an Alexa-dye-labeled anti-human IgG H+L secondary antibody (Thermo Fisher Scientific) and analyzed by flow cytometry. Mean fluorescence intensity (MFI) ratios were normalized to the non-specific binding control. The assay was performed in duplicates and data points were analyzed by a non-linear regression using a one-site specific binding model to derive KD values using Prism 9 software.
(In general: A flow cytometer gives signals particle by particle.)

B1: anti-TPBG antibody: humanized anti-5T4 monoclonal IgG1 antibody with Fc silencing mutations L234A and L235A (LALA) (antibody)
heavy: EVQLVQSGAEVKKPGASVKVSCKASGYSFTGYYMHWVRQAPGQGLEWMGRINPNNGVTLYNQKFKDRVTITRDTSTSTAYMELSSLRSEDTAVYYCARSTMITNYVMDYWGQGTLVTVSS[human IgG1 constant region with changes not spelt out]
light: EIVMTQSPDSLAVSLGERATINCKASQSVSNDVAWYQQKPGQPPKLLIYYTSSRYAGVPDRFSGSGSGTDFTLTISSLQAEDVAVYYCQQDYNSPPTFGGGTKLEIKRTVAAPSVFIFPPSDEQLKSGTASVVCLLNNFYPREAKVQWKVDNALQSGNSQESVTEQDSKDSTYSLSSTLTLSKADYEKHKVYACEVTHQGLSSPVTKSFNRGEC
With B1, the “ADCC activity in human NK cells” value in test [1] was “did not induce ADCC”. For the same molecule, the Kd in test [2] worked out at 110 pM; in test [3] it was 250 pM.

B2: anti-TPBG HC-wt: Fc-wildtype anti-TPBG antibody (HC-wt: SEQ ID NO: 24) (antibody)
heavy: EVQLVQSGAEVKKPGASVKVSCKASGYSFTGYYMHWVRQAPGQGLEWMGRINPNNGVTLYNQKFKDRVTITRDTSTSTAYMELSSLRSEDTAVYYCARSTMITNYVMDYWGQGTLVTVSS[human IgG1 constant region not spelt out]
light: EIVMTQSPDSLAVSLGERATINCKASQSVSNDVAWYQQKPGQPPKLLIYYTSSRYAGVPDRFSGSGSGTDFTLTISSLQAEDVAVYYCQQDYNSPPTFGGGTKLEIKRTVAAPSVFIFPPSDEQLKSGTASVVCLLNNFYPREAKVQWKVDNALQSGNSQESVTEQDSKDSTYSLSSTLTLSKADYEKHKVYACEVTHQGLSSPVTKSFNRGEC
As for B2, in test [1], the “ADCC activity in human NK cells” value is “high ADCC activity”.
